About 14,000 (4.5%) of roughly 310,000 compounds showed an effect of 50% or more. Effects have a minus sign here. Some of the results follow.
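Note: peak tail current of the secondary pulse compared with the same well before compound.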

Chain of human ether-à-go-go-related gene (hERG) potassium channel (Q12809 whole entry, looked up): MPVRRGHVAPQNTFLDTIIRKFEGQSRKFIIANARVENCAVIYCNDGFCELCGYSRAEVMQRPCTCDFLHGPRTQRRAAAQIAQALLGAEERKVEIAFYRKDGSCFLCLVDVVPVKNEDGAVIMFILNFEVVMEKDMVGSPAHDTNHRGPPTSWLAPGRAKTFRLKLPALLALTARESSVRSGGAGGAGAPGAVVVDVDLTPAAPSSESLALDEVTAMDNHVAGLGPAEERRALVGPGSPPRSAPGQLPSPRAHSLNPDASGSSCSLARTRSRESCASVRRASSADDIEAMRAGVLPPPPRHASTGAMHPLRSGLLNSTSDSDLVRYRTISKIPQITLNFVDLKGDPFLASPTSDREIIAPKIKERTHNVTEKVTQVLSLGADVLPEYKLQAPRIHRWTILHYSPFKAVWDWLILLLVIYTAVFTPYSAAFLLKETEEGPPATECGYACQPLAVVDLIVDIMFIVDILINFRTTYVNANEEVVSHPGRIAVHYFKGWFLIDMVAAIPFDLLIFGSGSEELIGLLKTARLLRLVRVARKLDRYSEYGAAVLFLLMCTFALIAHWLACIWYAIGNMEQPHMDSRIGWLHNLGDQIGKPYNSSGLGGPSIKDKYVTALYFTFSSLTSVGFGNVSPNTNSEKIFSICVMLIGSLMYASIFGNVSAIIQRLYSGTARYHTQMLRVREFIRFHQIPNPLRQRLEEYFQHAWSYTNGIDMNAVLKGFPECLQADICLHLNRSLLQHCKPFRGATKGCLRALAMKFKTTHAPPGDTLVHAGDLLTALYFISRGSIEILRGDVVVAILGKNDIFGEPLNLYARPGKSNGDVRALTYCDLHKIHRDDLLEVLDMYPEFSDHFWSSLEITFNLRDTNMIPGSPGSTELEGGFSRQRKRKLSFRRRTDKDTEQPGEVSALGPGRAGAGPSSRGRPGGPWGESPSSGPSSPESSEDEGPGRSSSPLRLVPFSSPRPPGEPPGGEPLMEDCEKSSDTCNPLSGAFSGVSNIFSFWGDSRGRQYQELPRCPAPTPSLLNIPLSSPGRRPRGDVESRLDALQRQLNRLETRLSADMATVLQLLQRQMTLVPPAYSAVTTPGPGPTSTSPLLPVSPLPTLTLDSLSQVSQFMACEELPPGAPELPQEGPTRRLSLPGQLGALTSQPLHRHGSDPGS

This test concerns the target human ether-à-go-go-related gene (hERG) potassium channel (human, UniProt Q12809). The test can be described thus: primary screen, population patch clamp on CHO cells stably expressing hERG.
As for `CCOC(=O)c1cnc(-c2ccccc2)nc1C(F)(F)F`, the “hERG current change (%, negative = inhibition) at 10uM” value amounted to 1.28%.

With `CCc1ccccc1NC(=O)Nc1cccc(F)c1`, the “hERG current change (%, negative = inhibition) at 10uM” value worked out at 6.94%.

For the compound `O=C(Nc1nnc(CCS(=O)(=O)c2ccc3ccccc3c2)s1)c1cccs1`, the “hERG current change (%, negative = inhibition) at 10uM” value worked out at 2.13%.

Turning to `COc1ccc(NC(=O)C2CCC2)cc1S(=O)(=O)N1CCOCC1`, the “hERG current change (%, negative = inhibition) at 10uM” value is reported as -4.9%. Take `CC(Oc1ccc(F)cc1)C(=O)/C=C\N(C)C` (stereo not shown): the “hERG current change (%, negative = inhibition) at 10uM” value was 3.1%.

Take `O=C(CS(=O)(=O)Cc1ccccc1)Nc1ccc(S(=O)(=O)N2CCCCCC2)cc1`: the “hERG current change (%, negative = inhibition) at 10uM” value is -6.67%. Then `CC(C)(C)S(=O)(=O)/C(C#N)=C/Nc1ccccn1`, with 3.87%; and `COc1ccc(-n2c(C)nnc2SCC(=O)N2C(C)CCCC2C)cc1` (stereo not shown), with -5.27%; and `COc1cc(-c2nc(=S)[nH][nH]2)cc(OC)c1OC`, with 5.94%. The figure for `CCC(C)Sc1nnc(Cc2cc(=O)[nH]c(=O)[nH]2)n1-c1ccc(F)cc1` (stereo not shown) is 16.1%; for `CC(=O)NC(C)C(c1cccs1)N1CCN(c2ccccc2)CC1` (stereo not shown) it is -1.08%; for `Nc1ccc(S(=O)(=O)c2ccc(Cl)cc2)cc1` it is -42%. Regarding `CN(C(=O)Nc1ccc(Cl)c(Cl)c1)c1ccccc1C(=O)O`, the “hERG current change (%, negative = inhibition) at 10uM” value is 3.19%. Turning to `Cc1ccc(C)c(-c2cc(C(=O)NN3CCOCC3)c3ccccc3n2)c1`, the “hERG current change (%, negative = inhibition) at 10uM” value is given as -17.1%. Turning to `Cc1sc2nc(SCC(=O)NCCO)n(C)c(=O)c2c1C`, the “hERG current change (%, negative = inhibition) at 10uM” value is 3.27%.

On to `Cc1nn(C)cc1S(=O)(=O)NCc1ccccc1Cl`, for which the “hERG current change (%, negative = inhibition) at 10uM” value is reported as 18.6%.

Consider `CN(c1ccc(C(=O)Nc2cccnc2)cc1)S(C)(=O)=O`, for which the “hERG current change (%, negative = inhibition) at 10uM” value came out at 0.0139%. As to `Cc1ccc(S(=O)(=O)N(CC(=O)Nc2cccc(C(F)(F)F)c2)C(=O)N2CCN(C)CC2)cc1`, the “hERG current change (%, negative = inhibition) at 10uM” value was determined as 9.98%. Regarding `CCCc1cc(=O)oc2c(C)c(OCC(=O)NCCN3CCOCC3)ccc12`, the “hERG current change (%, negative = inhibition) at 10uM” value was -31.6%. Regarding `COc1cccc(CN2CCN(CC(=O)NCCc3ccccc3)CC2)c1`, the “hERG current change (%, negative = inhibition) at 10uM” value is on record as -11.8%. Take `Cc1ccc(-c2nc3ccccc3[nH]2)cc1NC(=O)c1ccc2c(c1)OCO2`: the “hERG current change (%, negative = inhibition) at 10uM” value was -34.8%. For the compound `C[C@H](CO)NC(=O)[C@@H]1C[C@H]1[C@@H](NP(=O)(c1ccccc1)c1ccccc1)c1ccccc1`, the “hERG current change (%, negative = inhibition) at 10uM” value came out at 3.36%. On to `CSCCC(NC(=O)c1ccccc1)C(=O)OCC(=O)N(C)CCC#N` (stereo not shown), for which the “hERG current change (%, negative = inhibition) at 10uM” value is listed as -1.97%. Regarding `CCCOP(=O)(OCCC)c1nc(-c2ccccc2)oc1NCc1ccccc1`, the “hERG current change (%, negative = inhibition) at 10uM” value was 6.49%. In the case of `Cn1cccc1C(=O)NC(=O)COC(=O)Cc1coc2ccc3ccccc3c12`, the “hERG current change (%, negative = inhibition) at 10uM” value amounted to 3.26%.
